Hit rate of the full screen: of about 310,000 compounds, about 2,200 (0.71%) showed an effect of 50% or more. The effect is printed as a negative number. This is one part of the list.
target: human ether-à-go-go-related gene (hERG) potassium channel (human, UniProt Q12809); test: primary screen, population patch clamp on CHO cells stably expressing hERG
Sequence (Q12809 whole entry, looked up): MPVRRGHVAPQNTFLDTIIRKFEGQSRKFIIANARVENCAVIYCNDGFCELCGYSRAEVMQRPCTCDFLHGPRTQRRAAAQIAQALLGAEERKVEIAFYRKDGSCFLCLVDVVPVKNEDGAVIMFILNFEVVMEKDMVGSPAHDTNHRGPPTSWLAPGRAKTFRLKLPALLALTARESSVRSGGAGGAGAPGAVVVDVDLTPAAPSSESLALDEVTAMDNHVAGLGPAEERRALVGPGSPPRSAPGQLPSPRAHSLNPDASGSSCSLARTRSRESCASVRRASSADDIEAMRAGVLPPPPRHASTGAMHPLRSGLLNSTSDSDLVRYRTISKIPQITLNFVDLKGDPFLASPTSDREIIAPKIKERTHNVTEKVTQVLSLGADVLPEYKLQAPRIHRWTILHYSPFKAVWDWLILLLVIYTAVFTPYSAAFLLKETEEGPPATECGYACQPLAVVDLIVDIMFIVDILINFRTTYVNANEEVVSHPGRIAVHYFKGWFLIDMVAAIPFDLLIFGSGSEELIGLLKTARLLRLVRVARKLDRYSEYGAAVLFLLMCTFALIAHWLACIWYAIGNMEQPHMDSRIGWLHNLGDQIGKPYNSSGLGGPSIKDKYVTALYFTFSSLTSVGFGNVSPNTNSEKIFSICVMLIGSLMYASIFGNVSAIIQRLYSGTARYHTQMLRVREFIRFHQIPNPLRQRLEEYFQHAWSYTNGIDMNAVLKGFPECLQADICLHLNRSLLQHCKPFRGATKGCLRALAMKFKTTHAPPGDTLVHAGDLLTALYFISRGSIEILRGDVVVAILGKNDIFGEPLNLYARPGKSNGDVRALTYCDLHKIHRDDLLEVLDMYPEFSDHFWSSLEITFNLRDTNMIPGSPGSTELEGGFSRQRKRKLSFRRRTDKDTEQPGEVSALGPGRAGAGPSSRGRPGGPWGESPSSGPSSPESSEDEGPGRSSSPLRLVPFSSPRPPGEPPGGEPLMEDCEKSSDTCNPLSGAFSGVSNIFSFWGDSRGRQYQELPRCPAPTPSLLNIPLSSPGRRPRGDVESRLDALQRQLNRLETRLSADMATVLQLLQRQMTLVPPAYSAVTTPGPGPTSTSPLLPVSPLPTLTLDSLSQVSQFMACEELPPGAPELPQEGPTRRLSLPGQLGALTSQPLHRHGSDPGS

SMILES | hERG current change (%, negative = inhibition) at 1uM [%]
Cc1cc(SCc2cccc(Cl)c2)nc(=O)[nH]1 | 11.4
CSCC[C@H](NC(=O)c1ccc(Br)o1)c1nnc2ccccn12 | 11.8
Cc1ccc(NC(=O)CCC(=O)NNC(=O)COc2cccc3ccccc23)c(C)c1 | 4.07
CCn1c(SCC(=O)NCc2cccs2)nnc1-c1ccncc1 | 18.9
COc1ccc(C(=O)NCC(c2ccco2)N2CCc3ccccc3C2)cc1 (centres unmarked) | 4.84
O=C(Nc1ccc(C(=O)O)cc1)/C(=C\C=C\c1ccccc1)NC(=O)c1ccccc1Cl | 2.62
CC1(C(=O)N2CC3(CC(c4cccc(NC(=O)COc5ccc(Cl)cc5)c4)=NO3)C[C@@H]2C(N)=O)CC1 (some centres unmarked) | 14.3
CCOC(=O)c1c(NC(=O)COc2ccccc2C#N)sc2c1CC(C)(C)NC2(C)C | 11.1
CC(=O)NC(=S)Nc1ccc2oc(-c3cc(F)c(F)cc3Cl)nc2c1 | 10.6
C/C=C/c1ccc(Oc2nnnn2-c2ccc(C(N)=O)cc2)c(OC)c1 | 14.2
O=C(NN=C1CCCC1)c1ccccc1O | 16.1
Cc1cc(C)c(C#N)c(Nc2ccccc2Cl)n1 | 18.2
O=C(NCC(c1cccnc1)N1CCOCC1)c1ccco1 (centres unmarked) | 15
O=C(Cn1nc(-c2cccc(Cl)c2)ccc1=O)Nc1cccnc1 | 8.72
CCOc1ccc(C(=O)COc2ccc(NC(C)=O)cc2)cc1 | 18.2
CCOC(=O)c1c(C)[nH]c(C)c1C(=O)COC(=O)c1ccccc1O | 1.53
O=C(CCn1c(=S)oc2ccccc21)NCCC1=CCCCC1 | 7.57
O=S(=O)(NCc1ccccc1)c1ccc(S(=O)(=O)N(Cc2ccccn2)Cc2ccco2)cc1 | 23.9
CCOC(=O)Cc1csc(NS(=O)(=O)c2ccc(Br)cc2)n1 | 8.87
Cc1cc(C)c2c(-n3cccc3)c(C(=O)NNS(=O)(=O)c3ccccc3)sc2n1 | 11.1
COCCCNC(=S)NNC(=S)Nc1ccc(OC)cc1 | 12.3
CCOc1ccc(NS(=O)(=O)c2ccc3[nH]cc(C(=O)NCCOC)c(=O)c3c2)cc1 | -0.613
O=C(CCn1cccn1)Nc1ccc(-c2ccno2)cc1 | 10.1

SMILES | hERG current change (%, negative = inhibition) at 1uM [%]
COc1ccc(OC)c(/C=N/Nc2nncn2/N=C/c2cc(OC)ccc2OC)c1 | 8.75
C=CCc1c(C)nc(C)nc1N/N=C/c1ccccc1 | 0.814
COc1ccccc1Cn1c(-c2ccco2)nc2nc3ccccc3nc21 | -3.42
Cc1ccc(S(=O)(=O)N2CCN(C(=O)Cn3c(=O)cnc4ccccc43)CC2)cc1 | 1.04
COc1ccc2nc(C3CCCCC3)nc(C3CCCCC3)c2c1 | 15.2
CCCn1nc(NS(=O)(=O)c2ccc(F)cc2)c2cc3ccccc3nc21 | 12.1
CCC1Sc2ccccc2N(CC(=O)NC2CC2)C1=O (centres unmarked) | 12.3
O=C(Cn1cc2c(n1)CCCCC2)N1CCc2ccccc2C1 | 0.67
Cc1sc2ncnc(N3CCC(C(=O)N(CC(C)C)c4nc5ccccc5s4)CC3)c2c1C | 3.62
CCOC(=O)c1ccc(NC2c3ccccc3C(=O)N2c2ccc(C)cn2)cc1 (centres unmarked) | 11.3
CC(=O)Nc1ccc(S(=O)(=O)NCCSCc2ccc(Cl)cc2Cl)cc1 | 12.4
O=C(O)CCCNc1n[nH]c(=O)[nH]c1=O | 14.1
CC(C)(C)NC(=O)C(c1cccs1)N(Cc1ccco1)C(=O)c1csnn1 (centres unmarked) | 13.1
Brc1ccc(-c2csc(N3CCOCC3)n2)cc1 | 13.7
O=c1c2cc(Br)ccc2[nH]c(=S)n1-c1ccccc1 | 10.2
Cc1cc(CN(C)C(=O)c2cc(COc3ccc(C)c(C)c3)on2)n[nH]1 | 7.9
CCOP(=O)(C(NC(=O)c1ccccc1Cl)=C(Cl)Cl)c1ccccc1 (centres unmarked) | 9.1
COc1ccc(S(=O)(=O)N[C@@H](Cc2ccc(Cl)cc2)C(=O)N2CC[C@@]3(O)CCCC[C@H]3C2)cc1 | 4.25
N/C(=N\OC(=O)c1ccccc1)c1ccncc1 | 9.66
COC(=O)C1=CNC=C(C(=O)OC)C1c1ccccc1Cl | 14.1
CC1=CCC[C@@H]2[C@@](C)(CC/C(C)=C/C(=O)O)[C@H](C)CC[C@@]12C | 11.2
CCCCn1c(-c2cccc(Br)c2)nc2cc3[nH]c(=O)c(C(C)C)nc3cc21 | 9.92
CCOC(=O)N1CCN(c2c(NCc3ccc(N(C)C)cc3)c(=O)c2=O)CC1 | 12.8

SMILES | hERG current change (%, negative = inhibition) at 1uM [%]
CCOC(=O)c1nnc(-c2ccccc2)nc1N1CCSCC1 | 1.52
Cc1ccc(Cl)cc1NS(=O)(=O)c1ccc2oc(=O)ccc2c1 | -0.581
CC(C)CNS(=O)(=O)c1ccc(CCC(=O)N2CCCC2)cc1 | 13.4
Cc1nnc(N/N=C/c2c(O)n(-c3cccc(C(F)(F)F)c3)c(=O)c3ccccc23)[nH]c1=O | 6.94
Cc1nc(SCC(=O)N(C)C2CCS(=O)(=O)C2)c(C#N)c(C)c1C (centres unmarked) | -6.6
O=C(O)CSCC(=O)NCc1ccccc1 | 13
CC(C)c1ccc(NC(=O)CCS(=O)(=O)c2cccc3nonc23)cc1 | 8.9
COc1cc(CC(NC(C)=O)C(=O)NC2CCN(C(=O)Nc3ccccc3C)CC2)cc(OC)c1 (centres unmarked) | 9.35
O=C(c1ccc(Cl)cc1)N1CCN(c2ncccn2)CC1 | 7.45
Cc1ccc(S(=O)(=O)N2CCCCC2)cc1NC(=O)COc1ccccc1F | 5.06
CCOC(=O)c1ccc(NC(=O)c2nc[nH]c2C(=O)NCC(=O)OC(C)(C)C)cc1 | 16.4
CCCSc1nnc(NC(=O)Nc2ccccc2)s1 | 2.06
COc1ccc(-n2c(C)nc3cc(C(=O)N4CCC5(CC4)OCCO5)ccc32)cc1 | -0.716
COc1cc(-c2noc(C)c2/C=C/c2ccc(N)cc2)cc(OC)c1OC | 1.78
N#CNC1=NCN(Cc2ccccc2)CN1 | 5.29
COc1ccc(N2Nc3n[nH]c(N)c3N2)cc1 | -1.3
CCCC1OC23CCCCC2C(C#N)(C(=N)O3)C1(C#N)C#N (centres unmarked) | 12.6
CC(=O)c1oc2ccccc2c1N | 16.7
CC(Oc1ccccc1Cl)C(=O)/C=C/N(C)C (centres unmarked) | 19.3
CCc1nnc(NC(=O)c2ccc(-c3ccccc3F)o2)s1 | 11.7
O=C(CN1CCN(Cc2ccccc2F)C1=O)NC1CCCC1 | 6.39
CCn1c(=S)sc2c(=O)n(CC(=O)Nc3ccccc3OC)c(C)nc21 | 7.25
COc1ccc(/C=C2\C(=O)N(Cc3ccc(F)cc3)CC(=O)N2Cc2ccccc2)cc1 | 7.5

SMILES | hERG current change (%, negative = inhibition) at 1uM [%]
CC(NC(=O)Nc1ccccc1)C(c1cccs1)N1CCN(c2ccccc2)CC1 (centres unmarked) | 13.2
Cc1ccc(O)c(NC(=O)c2noc3c2CCc2ccccc2-3)c1 | 9.72
CC(C)(c1ccccc1)c1ccc(OCC2CO2)cc1 (centres unmarked) | 17.8
O=C1/C(=C/c2cc3c(cc2Cl)OCO3)N2CCC1CC2 | 14.8
S=C(NCCN1CCOCC1)Nc1cccc(Cl)c1 | 4.81
O=C(Nn1c(SCc2cccc([N+](=O)[O-])c2)nc2ccccc2c1=O)c1ccccc1 | 7.12
COCCNC(=O)C(c1ccc(Cl)cc1)N(CCOC)C(=O)CCC(=O)Nc1ccccn1 (centres unmarked) | 7.5
O=C(C1=C[C@@H](c2coc3ccccc3c2=O)C[C@@H](OCc2ccc(CO)cc2)O1)N1CCN(Cc2ccccc2)CC1 | -0.45
Cc1ccc(Cn2nc(C)c(/C=N/NC(=O)c3cccnc3)c2C)cc1 | 5.98
Cc1ncc(CN2CCCC(CCC(=O)NCc3ccccc3F)C2)s1 (centres unmarked) | 20.6
COc1ccc(CNC(=S)Nc2cccc(C)c2C)cc1 | -7.25
CC1CCN(S(=O)(=O)c2cc(F)ccc2CN2C(=O)c3cccnc3C2=O)CC1 | 0.0794
Cn1c(=O)c(S(=O)C2CCCCC2)c(O)c2ccccc21 (centres unmarked) | 11.3
COc1ccc(/C=C/C(=O)Oc2ccc(/C=N/NC(=O)c3ccncc3)cc2)cc1 | -2.79
O=C1OC(N2CCN(Cc3ccccc3)CC2)c2ccccc21 (centres unmarked) | 13.9
Fc1cccc(CN2CCN(c3ncccn3)CC2)c1 | -3.94
COc1ccccc1N1CCN(C(=O)c2ccc(Cl)c(S(=O)(=O)NCc3ccco3)c2)CC1 | 13.5
COC(=O)C1=C(c2ccc(F)cc2F)C[C@@H]2CC[C@H]1N2C | 10.1
CC1OC(OCC2OC(Oc3c(-c4ccc(O)cc4)oc4cc(O)cc(O)c4c3=O)C(O)C(O)C2O)C(O)C(O)C1O (centres unmarked) | 11.7
N#C/C(=C\c1ccc(OCCN2CCOCC2)cc1)C(=O)Nc1ccccc1 | 8.83

From article PMC4336329 (PLoS ONE, 2015)
